Where “and” joins values, the source holds several entries; their conditions need not be identical. Identical values can stand only once. The whole screen tested about 16,000 compounds, of which about 40 (0.2%) were called active. Not shown: some 1% with an inconclusive outcome. Calls follow the shape of the dose curve; as a rule, active = well fitted activation curve with a large enough effect; inconclusive = small, poorly fitted or top-dose-only effect, or another doubt; inactive = no such curve, though single readings can be large or run the other way. The list shows a part of the results.
Target: Rap guanine nucleotide exchange factor 4 (Homo sapiens) (UniProt Q8WZA2)
Assay: Validation qHTS for agonist of cAMP-regulated guanine nucleotide exchange factor 4 (EPAC2);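 also: exchange makes BODIPY-GDP fluorescence drop when released from Rap1B; series mostly up to about 150 µM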
Conditions: EPAC2 Rap1B BODIPY-GDP exchange, fluorescence; activation: stronger effect = higher value
Method in brief: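 Fluorescent exchange assay: 100 nM EPAC2 with 250 nM RAP1B-BODIPY-GDP and 50 uM GDP; compound added, 5 min at room temperature, then read (ex 480/em 540 nm) every 5 min for 30 min. Normalized to 6.5 mM cAMP agonist control.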
% is scaled to controls: 0 for no effect and ±100 for the full control effect.

Chain of UniProt Q8WZA2 (Q8WZA2 whole entry, looked up): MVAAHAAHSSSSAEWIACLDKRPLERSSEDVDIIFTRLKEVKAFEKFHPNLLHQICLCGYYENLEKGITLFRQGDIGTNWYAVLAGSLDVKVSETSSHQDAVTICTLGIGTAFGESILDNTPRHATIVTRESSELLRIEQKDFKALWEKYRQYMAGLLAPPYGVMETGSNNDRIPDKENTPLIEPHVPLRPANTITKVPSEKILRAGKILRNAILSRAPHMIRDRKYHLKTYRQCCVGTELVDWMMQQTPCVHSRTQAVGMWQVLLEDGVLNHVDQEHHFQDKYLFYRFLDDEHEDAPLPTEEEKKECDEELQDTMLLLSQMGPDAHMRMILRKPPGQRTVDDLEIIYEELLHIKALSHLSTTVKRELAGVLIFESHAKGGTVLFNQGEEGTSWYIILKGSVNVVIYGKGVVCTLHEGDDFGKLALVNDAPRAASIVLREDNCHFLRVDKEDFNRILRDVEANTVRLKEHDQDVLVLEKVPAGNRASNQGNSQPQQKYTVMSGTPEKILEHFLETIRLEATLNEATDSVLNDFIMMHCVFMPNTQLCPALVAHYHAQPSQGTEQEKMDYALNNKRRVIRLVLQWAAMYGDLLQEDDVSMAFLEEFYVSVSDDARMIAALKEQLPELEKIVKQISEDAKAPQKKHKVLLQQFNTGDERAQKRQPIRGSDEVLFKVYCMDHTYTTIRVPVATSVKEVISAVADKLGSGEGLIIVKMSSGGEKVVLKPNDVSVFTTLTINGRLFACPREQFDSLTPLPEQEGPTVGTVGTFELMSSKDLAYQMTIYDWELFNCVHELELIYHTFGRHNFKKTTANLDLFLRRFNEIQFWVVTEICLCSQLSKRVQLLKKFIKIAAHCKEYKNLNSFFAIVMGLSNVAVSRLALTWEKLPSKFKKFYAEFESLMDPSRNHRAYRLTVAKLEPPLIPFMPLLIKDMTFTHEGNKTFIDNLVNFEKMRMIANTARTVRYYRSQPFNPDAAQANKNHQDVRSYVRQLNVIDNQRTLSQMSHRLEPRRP

activation, inactive:
OCC1=CC[N+]2(Cc3ccccc3)CCC(O)[C@@H]12 (stereo not given in full) -16.7%
COc1cccc(Nc2ncc3nc(-c4ccccc4)c(=O)n(C)c3n2)c1 -7.86%
O=C(c1ccco1)N1CCC2(CC1)CCN(c1ccccn1)CC2 -16.1%
COC(=O)[C@@H]1CCCN1S(=O)(=O)Cc1ccccc1 -14.2%
CCCCCCCC(=O)CC[C@@H]1[C@@H](C/C=C\CCCC(=O)OC(C)C)[C@@H](O)C[C@H]1O -51.3%
CCCCO -25.4%
CCN1CCCC1CNC(=O)c1cnn(-c2nccc(-c3ccccc3F)n2)c1C (stereo not given) -3.68%
C=C1C2CC[C@@]3(C)C(c4ccoc4)OC(=O)C[C@@]13OC1CC(=O)C(C)(C)C(C(O)C(=O)OC)[C@]12C (stereo not given in full) -9.5%
FC(F)(F)c1cc(CO[C@H]2CCCN[C@H]2c2ccccc2)cc(C(F)(F)F)c1 -19.3%
O=c1c(-c2ccc(F)c(F)c2)nc2cncnc2n1Cc1ccccc1Cl 18%
Cc1ccc(S(=O)(=O)NCl)cc1 2.21%
Nc1ccc(C=O)cc1 -18.1%
COc1ccc(Oc2ncc3nc(-c4cn(C)c5ccccc45)c(=O)n(C)c3n2)cc1 -2.47%
O=C(N/N=C/c1ccccc1O)c1ccncc1 -26.3%
C[C@@H]1CN(c2c(F)c(N)c3c(=O)c(C(=O)O)cn(C4CC4)c3c2F)C[C@H](C)N1 -1.02%
O=c1n(CC2CO2)c(=O)n(CC2CO2)c(=O)n1CC1CO1 (stereo not given) -11.3%
C[C@@H]1O[C@@H]1P(=O)(O)O 9.76%
Cn1c(=O)c2[nH]c(-c3ccc(S(=O)(=O)O)cc3)nc2n(C)c1=O -5.37% and -27%
Cn1cccc1C(=O)N1CCC2(CCCN(c3ncccn3)C2)CC1 -7.68%
COc1cc(-c2c(-c3ccc4c(c3)OCO4)noc2C)ccc1F -1.82%
COc1ccc(-n2c(=O)c(-c3ccccc3)nc3cnc(N4CCN(C)CC4)nc32)cc1 -4.54%
COc1cc(-c2cnc3ccccc3c2)cc2c1OCCN(C(=O)CCC(=O)c1ccc(F)cc1)C2 -1%
COc1cccc(-c2nccc(NCc3ccccc3OC)n2)c1 8.06%
CN=C(N)NCCC[C@H](N)C(=O)O 11.6% and -28.1% and -24.7%
CC(=O)NCCNc1ncnc2ccc(-c3ccccc3C(F)(F)F)cc12 -22.2%

— PubChem BioAssay AID1645887 (National Center for Advancing Translational Sciences (NCATS), 2021)
